Results as given in patent US20190315854A1 (BEIJING VDJBIO, published 2019).
Substitutions are numbered along the chain they refer to.

T1: sIL-6R (soluble IL-6 receptor; SBH Sciences) (human, UniProt P08887 20-365)
T1 construct: also called human IL-6R
T1 sequence: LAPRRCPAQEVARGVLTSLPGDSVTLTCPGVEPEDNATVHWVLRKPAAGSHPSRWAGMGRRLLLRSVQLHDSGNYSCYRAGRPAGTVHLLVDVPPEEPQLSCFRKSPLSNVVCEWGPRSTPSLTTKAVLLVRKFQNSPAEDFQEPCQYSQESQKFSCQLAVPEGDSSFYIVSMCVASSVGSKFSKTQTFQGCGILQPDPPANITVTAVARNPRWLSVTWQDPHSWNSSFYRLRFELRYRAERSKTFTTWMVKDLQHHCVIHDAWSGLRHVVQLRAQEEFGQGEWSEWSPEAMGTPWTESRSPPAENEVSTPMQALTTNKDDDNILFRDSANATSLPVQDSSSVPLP

T2: IL-6 receptor on DS-1 cells (ATCC CRL 11102) (UniProt P08887 20-468, limits assumed)
T2 sequence (looked up): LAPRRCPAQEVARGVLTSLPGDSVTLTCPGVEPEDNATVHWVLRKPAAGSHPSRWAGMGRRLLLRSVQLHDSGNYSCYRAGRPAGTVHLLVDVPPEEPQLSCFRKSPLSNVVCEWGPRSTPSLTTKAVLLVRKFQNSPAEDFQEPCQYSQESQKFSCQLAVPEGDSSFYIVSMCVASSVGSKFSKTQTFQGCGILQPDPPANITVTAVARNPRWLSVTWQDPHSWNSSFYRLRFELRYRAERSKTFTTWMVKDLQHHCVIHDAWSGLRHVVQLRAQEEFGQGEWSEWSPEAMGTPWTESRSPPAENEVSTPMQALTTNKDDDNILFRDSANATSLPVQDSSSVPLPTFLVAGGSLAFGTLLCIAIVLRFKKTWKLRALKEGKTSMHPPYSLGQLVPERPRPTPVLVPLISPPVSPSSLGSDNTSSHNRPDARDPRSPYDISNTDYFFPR

B1: 1# (antibody, human IgG1, kappa)
heavy: QVQLQESGPGLVRPSQTLSLTCTVSGYSITSDHAWSWVRQPPGRGLEWIGYISYSGITTYNPSLKSRVTMLRDTSKNQFSLRLSSVTAADTAVYYCARSLARITAMDYWGQGSLVTVSS[letters of human IgG1 constant region not shown]
light: DIQMTQSPSSLSASVGDRVTITCRASQDISSYLNWYQQKPGKAPKLLIYYTSRLHSGVPSRFSGSGSGTDFTFTISSLQPEDIATYYCQQGNTLPYTFGQGTKVEIKRTVAAPSVFIFPPSDEQLKSGTASVVCLLNNFYPREAKVQWKVDNALQSGNSQESVTEQDSKDSTYSLSSTLTLSKADYEKHKVYACEVTHQGLSSPVTKSFNRGEC
notes: also called Sample # 1
B2: 6# (antibody, human IgG1, kappa)
heavy: QVQLQESGPGLVRPSQTLSLTCTVSGYSITSDHAWSWVRQPPGRGLEWIGYISYSGITTYNPSLKSRVTMLRDTSKNQFSLRLSSVTAADTAVYYCARSLARITAMDYWGQGSLVTVSA[letters of about 350 residues with a human IgG1 Fc not shown]
light: B1 light
notes: also called Sample # 6
B3: 29# (antibody, human IgG1, kappa)
heavy: B1 heavy with Y51F, I57M, S99C
light: B1 light
notes: also called Sample # 29
B4: 54# (antibody, human IgG1, kappa)
heavy: B1 heavy with Y51F, I57M, S99C, T116I
light: B1 light
notes: also called Sample # 54
B5: 57# (antibody, human IgG1, kappa)
heavy: B1 heavy with Y51F, I57M, T58I, S99C
light: B1 light
notes: also called Sample # 57
B6: 58# (antibody, human IgG1, kappa)
heavy: B1 heavy with Y51F, I57M, S99C
light: B1 light
notes: also called Sample # 58
B7: 61# (antibody, human IgG1, kappa)
heavy: B1 heavy with Y51F, I57M, T58I, S99C, T116I
light: B1 light
notes: also called Sample # 61

molecular target: T1, sIL-6R (soluble IL-6 receptor; SBH …); assay: SPR (BIAcore 3000), antibody on chip, sIL-6R analyte, 25 C
Experimental: (§1) All SPR measurements were performed on a BIAcore 3000 instrument (GE Biosciences, Piscataway, N.J.). BIAcore Software-BIAcore 3000 Control Software V3.2 was used for the operation and control of the BIAcore 3000 instrument. BiaEvaluation Software V4.1 was used for the analysis of SPR data from the BIAcore 3000 instrument and data was plotted using Graph Pad Prism Software Version 5. […] The indicated antibodies were used as the ligand for the construction of the reference channel of the chip. […] Each sample was injected for 3 min at a flow rate of 30 μL/min to allow for binding to chip-bound antibody. Next, binding buffer without analyte was sent over the chip at the same flow rate to allow for dissociation of bound analyte. After 500s, remaining bound analyte was removed by injecting regeneration solution (1M Formic acid). Data was analyzed by using the Kinetics Wizard and the manual fitting programs that are both included with the BiaEvaluation Software V4.1.

B1 and B2 are within 1.5-fold of each other in Kd: 0.295 nM for the first, 0.37 nM for the second.

First: B3
Second: B4
The Kd of the first is 1.8-fold higher: 0.122 nM for the first, 0.0697 nM for the second.

B5 and B6 are within 1.5-fold of each other in Kd: 0.0984 nM for the first, 0.103 nM for the second.

B7 gave a Kd of 0.0544 nM.

Compared with B1, B2 is lower in “Relative Affinity” value: 5.8 fold vs 25 (Tocilizumab) for the first, 4.6 fold vs 25 (Tocilizumab) for the second.

Compared with B3, B4 is higher in “Relative Affinity” value: 14 fold vs 25 (Tocilizumab) for the first, 45.3 fold vs 25 (Tocilizumab) for the second.

Compared with B5, B6 is lower in “Relative Affinity” value: 29 fold vs 25 (Tocilizumab) for the first, 27.7 fold vs 25 (Tocilizumab) for the second.

With B7 the “Relative Affinity” value was 52.4 fold vs 25 (Tocilizumab).

B1 and B2 are within 1.5-fold of each other in koff: 6.76e-05 s⁻¹ for the first, 8.1e-05 s⁻¹ for the second.

Compared with B3, B4 is 3.9-fold lower in koff: 5.37e-05 s⁻¹ for the first, 1.39e-05 s⁻¹ for the second.

B5 and B6 are within 1.5-fold of each other in koff: 2.41e-05 s⁻¹ for the first, 2.67e-05 s⁻¹ for the second.

With B7 the koff was 1.29e-05 s⁻¹.

B1 and B2 are within 1.5-fold of each other in kon: 229000 M⁻¹ s⁻¹ for the first, 219000 M⁻¹ s⁻¹ for the second.

Going from B3 to B4, the kon falls from 440000 M⁻¹ s⁻¹ to 199000 M⁻¹ s⁻¹ (2.2-fold).

B5 and B6 are within 1.5-fold of each other in kon: 245000 M⁻¹ s⁻¹ for the first, 258000 M⁻¹ s⁻¹ for the second.

B7 was tested, and the kon was 238000 M⁻¹ s⁻¹.

molecular target: T1, sIL-6R (soluble IL-6 receptor; SBH …); assay: as above; remark: another data set of the same source
Experimental: as §1

Going from B1 to B2, the Kd falls from 0.413 nM to 0.267 nM (1.5-fold).

B3 gave a Kd of 0.0957 nM.

Compared with B1, B2 is higher in “Relative Affinity” value: 3.2 fold vs 25 (Tocilizumab) for the first, 5 fold vs 25 (Tocilizumab) for the second.

In the case of B3, the “Relative Affinity” value is reported as 14 fold vs 25 (Tocilizumab).

First: B1
Second: B2
The koff of the first is 1.6-fold higher: 0.000101 s⁻¹ for the first, 6.22e-05 s⁻¹ for the second.

B3 gave a koff of 3.99e-05 s⁻¹.

B1 and B2 are within 1.5-fold of each other in kon: 244000 M⁻¹ s⁻¹ for the first, 233000 M⁻¹ s⁻¹ for the second.

With B3 the kon was 417000 M⁻¹ s⁻¹.

molecular target: T2, IL-6 receptor on DS-1 cells (ATCC CRL …); assay: cell-based or functional assay

B5 and B6 are within 1.5-fold of each other in “IC50 (µg/ml), inhibition of DS-1 cell proliferation, MTS assay, IL6 2 ng/mL” value: 0.0638 µg/mL for the first, 0.0697 µg/mL for the second.
